Laboratory results as given in PubChem BioAssay AID1159614 (National Center for Advancing Translational Sciences (NCATS), 2016).
The whole screen tested about 45,000 compounds, of which about 65 (0.1%) were called active. Calls come from the whole dose curve; as a rule, active = well fitted activation curve with a large enough effect; inconclusive = small, poorly fitted or top-dose-only effect; inactive = no such curve, though single readings can be large or run the other way. Some of the results follow.

Target: Galactocerebrosidase (Homo sapiens) (UniProt P54803)
UniProt P54803, sequence (P54803 whole entry, looked up): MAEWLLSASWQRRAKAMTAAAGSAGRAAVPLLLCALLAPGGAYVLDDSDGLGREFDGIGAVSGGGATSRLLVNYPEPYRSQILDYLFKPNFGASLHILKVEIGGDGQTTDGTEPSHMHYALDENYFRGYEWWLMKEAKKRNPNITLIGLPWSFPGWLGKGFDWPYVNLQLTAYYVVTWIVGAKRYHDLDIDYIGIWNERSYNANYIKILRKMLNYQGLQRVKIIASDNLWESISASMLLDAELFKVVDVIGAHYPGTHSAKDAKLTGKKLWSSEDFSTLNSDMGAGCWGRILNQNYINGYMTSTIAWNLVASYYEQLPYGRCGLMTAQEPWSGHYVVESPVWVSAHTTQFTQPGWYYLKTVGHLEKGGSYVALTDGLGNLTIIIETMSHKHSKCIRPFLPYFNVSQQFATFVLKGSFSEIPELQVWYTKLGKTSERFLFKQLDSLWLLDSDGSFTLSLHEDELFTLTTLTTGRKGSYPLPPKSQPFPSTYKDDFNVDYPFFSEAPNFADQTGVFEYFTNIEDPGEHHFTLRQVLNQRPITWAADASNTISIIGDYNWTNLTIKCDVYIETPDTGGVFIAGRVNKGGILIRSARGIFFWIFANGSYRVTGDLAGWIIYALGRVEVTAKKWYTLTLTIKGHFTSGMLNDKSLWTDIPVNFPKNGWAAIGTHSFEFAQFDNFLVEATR
Assay: A Novel Cell-Based Assay to Identify Small Molecules for B -Galactocerebrosidase; note: 0% is about no effect; nearly all actives have a fitted effect of over 65% in size
Details: 145M-Twi-hGALC-G270D cells (Twitcher mouse brain line with human GALC G270D), HMU-beta-Gal fluorescence, 48 h; series mostly up to 57.5 µM; activation: at the top concentration
Outline: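 Fluorescence readout: HMU-β-gal cleavage by mutant GALC (0.1 mM final, citrate/phosphate pH 5.2 with 1 mg/mL taurocholate), stopped with carbonate/bicarbonate plus Triton X-100. Cells: murine Twitcher 145M-Twi expressing human G270D GALC; qHTS for activators.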

activation, inactive:
CCOC(=O)c1c(NC(=O)c2cc3ccccc3c(=O)o2)sc2c1CCCC2 -1.44%
CCCN(CCC)CCNC(=O)c1cc(Sc2ccc(Cl)cc2)nc2ccccc12 -10.2%
COc1ccc(OC)c(NC(=O)CCc2c(C)nc3c(-c4ccccc4)c(C)nn3c2C)c1 -33.1%
CCc1cccc(NC(=O)c2ccc3c(=O)n4nc(Nc5ccccc5OC)sc4nc3c2)c1 -18.1%
CCSC1=NC2(CCN(C(=O)NC3CCCCC3)CC2)N=C1c1ccc(C)c(C)c1 -8.05%
Cc1ccc(NC(=O)[C@H](Cc2ccccc2)N2Cc3ccccc3C2=O)cc1 -8.11%
Cc1noc(C)c1S(=O)(=O)NCCc1csc2nc(-c3ccc(F)cc3)nn12 -7.69%
Cc1ccc(S(=O)(=O)c2cn(CC(=O)Nc3ccc4c(c3)OCO4)c3ccc(F)cc3c2=O)cc1 -9.03%
Cc1cccc(CSCCNC(=O)CN(c2ccccc2)S(=O)(=O)N(C)C)c1 -38.8%
Cc1cc2n(n1)CCCN2C(=O)Nc1cccc(C)c1C -8.03%
Cc1cccc(Nc2nc3ccccc3n3c(N)nnc23)c1 -12.1%
COc1cccc(N2CCN(c3ncc4c(n3)CCN(Cc3ccc(Br)cc3)C4)CC2)c1 -9.66%
Cc1ccc(Cn2c(=O)c3cccnc3n(Cc3ccc(F)cc3)c2=O)cc1 -12.9%
OC1(c2ccccc2)CCNCC1 -11.3%
Cc1ccc(C)c(NC(=O)Cn2c(=O)oc3cc(S(=O)(=O)NCc4ccccc4)ccc32)c1 -44.6%
Cc1cc2oc(C(=O)Nc3ccc(S(=O)(=O)Nc4onc(C)c4C)cc3)cc(=O)c2cc1C -5.99%
COc1ccc(Cl)cc1NC(=O)c1nc(S(C)(=O)=O)ncc1N(Cc1ccc(C)cc1)Cc1ccco1 -20%
CCOc1ccc(-n2c(SC(C)C(=O)OC)nc3c([nH]c4ccccc43)c2=O)cc1 (configuration not stated) -6.52%
CCc1ccc2oc(C(=O)Nc3nc(-c4ccccc4)ns3)c(C)c2c1 -6.13%
Cc1cccc(CNC(=O)c2ccc(Cn3c(SCc4ccccc4)nc4cccnc43)cc2)c1 -17.2%
Cc1c(C(=O)N(C)C)sc2c1c(=O)n(-c1ccc(F)cc1)c(=O)n2CC(=O)N(C)c1ccccc1 -2.28%
Cc1ccc(OC(C)C(=O)NCC2(N3CCOCC3)CCCCC2)cc1C (configuration not stated) 14.8%
Cc1ccccc1C(=O)Nc1sc2c(c1C(=O)N1CCC(C)CC1)CCCC2 -14.2%
CCN(CCCNC(=O)c1cc2c(=O)[nH]c3ccc(C)cc3c2s1)Cc1ccccc1 -7.66%
CCOC(=O)c1c(NC(=O)/C=C/c2ccc(OC)cc2)sc2c1CCC(C)C2 (configuration not stated) 4.13%
O=C(CSc1nc(=O)[nH]c2c1CCCC2)NCc1ccc(Cl)cc1 -14.2%
CCN(CC)CCNC(=O)c1ccc(N)cc1 -12.3%
